Test results taken from PubChem BioAssay AID1645882 (National Center for Advancing Translational Sciences (NCATS), 2021).
In all, about 16,000 compounds went through this assay and about 120 (0.75%) were called active. Not shown: some 4% with an inconclusive outcome. The call rests on the fitted dose curve; in most records, active means well fitted inhibition curve with a large enough effect; inconclusive means small, poorly fitted or top-dose-only effect; inactive means no such curve, though single readings can be large or run the other way. The list shows a part of the results. Where a SMILES comes first, the peptide text is derived from it. [ ]: non-standard residue; d: D form. Nle = CCCC[C@H](N)C(=O)O

Target: Rap guanine nucleotide exchange factor 3 (Homo sapiens) (UniProt O95398)
Chain of UniProt O95398 (O95398 whole entry, looked up): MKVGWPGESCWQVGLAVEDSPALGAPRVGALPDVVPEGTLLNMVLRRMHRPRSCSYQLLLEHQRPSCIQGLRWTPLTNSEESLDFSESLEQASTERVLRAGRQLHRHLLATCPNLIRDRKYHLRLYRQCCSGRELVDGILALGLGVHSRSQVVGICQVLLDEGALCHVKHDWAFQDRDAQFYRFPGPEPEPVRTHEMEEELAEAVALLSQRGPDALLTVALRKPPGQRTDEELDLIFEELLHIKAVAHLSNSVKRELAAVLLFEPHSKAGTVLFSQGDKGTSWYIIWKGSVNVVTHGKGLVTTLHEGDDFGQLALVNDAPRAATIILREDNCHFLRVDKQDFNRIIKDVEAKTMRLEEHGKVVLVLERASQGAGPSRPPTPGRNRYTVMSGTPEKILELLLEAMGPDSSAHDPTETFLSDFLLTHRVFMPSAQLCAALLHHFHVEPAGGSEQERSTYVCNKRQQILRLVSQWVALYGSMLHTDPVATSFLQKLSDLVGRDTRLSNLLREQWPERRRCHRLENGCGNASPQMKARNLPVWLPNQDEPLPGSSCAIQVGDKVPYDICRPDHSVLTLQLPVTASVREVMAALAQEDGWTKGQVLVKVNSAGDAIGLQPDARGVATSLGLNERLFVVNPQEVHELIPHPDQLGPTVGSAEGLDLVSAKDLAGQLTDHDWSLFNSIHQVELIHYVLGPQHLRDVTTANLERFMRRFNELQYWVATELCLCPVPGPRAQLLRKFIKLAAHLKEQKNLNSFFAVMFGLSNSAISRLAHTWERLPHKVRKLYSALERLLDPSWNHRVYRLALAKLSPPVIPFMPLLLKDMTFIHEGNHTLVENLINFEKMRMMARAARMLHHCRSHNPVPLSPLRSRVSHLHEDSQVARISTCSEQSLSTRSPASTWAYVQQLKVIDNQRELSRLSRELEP
Experiment: Validation qHTS for antagonist of cAMP-regulated guanine nucleotide exchange factor 3 (EPAC1); further: nearly all actives have a fitted effect of over 75% in size
Settings: EPAC1 Rap1B-BODIPY-GDP exchange, fluorescence; series mostly up to 150 µM; activity change, negative = inhibition: at the top concentration
Procedure, shortened: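 EPAC1 (100 nM) mixed with 250 nM RAP1B-BODIPY-GDP and 50 uM GDP; compounds in concentration series, 5 min at room temperature. Fluorescence (ex 480/em 540 nm) read every 5 min for 30 min; normalized to ATA control and DMSO.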

Activity change, negative = inhibition, inactive:
NC1C=CC=C(C(=O)O)C1 (stereo not given), COc1ccc2[nH]cc(CCNc3cc(-c4ccccc4CN(C)C)ncn3)c2c1 19.3%, C[C@H](NC(=O)OC(C)(C)C)[C@@H](O)c1ccco1 1.01%, CSc1ccc2c(c1)N(CCC1CCCCN1C)c1ccccc1S2 (stereo not given), CCCCC[C@H]1CN(CCCC)C(=O)[C@@H]1CC(=O)NCc1ccc(OC)cc1 -16.4%, Cc1oc(-c2ccccc2NS(C)(=O)=O)nc1CN(C)Cc1ccc(Cl)cc1 -4.25%, C[C@H]1CC[C@@H]2N(C1)C[C@H]1[C@@H]3C[C@H]4[C@@H](C/C(=N\O)[C@H]5C[C@@H](O)CC[C@@]54C)[C@@H]3CC[C@H]1[C@]2(C)O 20.3%, COc1cccc(-c2nc(NC3CCNCC3)c3ccccc3n2)c1 0.869%, COc1cc(-c2ccc(=O)[nH]n2)ccc1OC(F)F, COc1ccc(C(=O)NCc2nnc(SC)n2-c2ccccc2C)c(OC)c1OC 15%, N[C@H](CS)C(=O)O 14.2%, C(=C\c1ccncc1)/c1ccccc1, CNC(=O)[C@H]1O[C@H](n2cnc3c(NCc4cccc(I)c4)nc(Cl)nc32)[C@@H](O)[C@@H]1O -9.07%, COc1ccc(CN([C@H](C)CO)S(=O)(=O)N(Cc2ccccc2)[C@H](CO)C(C)C)cc1 -19.2%, Cc1ccc(C(=O)C[n+]2cccc3cccc(O)c32)cc1 26.1%, Cc1ncc2c(c1CNC(=O)/C=C/c1cccs1)CCN(C(=O)c1c(C)noc1C)C2 12.7%, COC(=O)N1c2ccccc2C23[C@@H]4CN5CCC[C@]6(CCC12C(O)(C6)C4=O)[C@H]53 11.1%, COc1ccc(CN2CCN(C(C)=O)CC2)cc1OC1CCN(C(=O)c2ccc3ccccc3n2)CC1 -11.9%, CCCC(CCC)C(=O)OC1C[C@H]2CC[C@@H](C1)[N+]2(C)C (stereo not given in full), CC(N)=NCCC[C@H](N)C(=O)O 5.88%, Cc1noc(C)c1C(=O)N1CCC2(CCCN(C(=O)Nc3ccccc3)C2)CC1 7.69%, CC[N+](CC)(CC)CC(=O)Nc1c(C)cccc1C, COc1ncc2ncc(=O)n(Cc3cccs3)c2n1 7.59%, COc1ccc2[nH]cc(CCNc3cc(-c4c(C)noc4C)ncn3)c2c1 -18.5%, Cc1ccc(C(=O)N(Cc2cc3cccc(C)c3nc2N2CCC(O)CC2)C2CC2)cc1 -8.54%, CC(O)(COc1ccccc1)c1ccc2c(c1)CN(Cc1cn[nH]c1-c1ccc(F)cc1)CCO2 (stereo not given) -13.1%, COC(=O)C1CCN(Cc2ccc3c(c2)CN(C(=O)C2Cc4ccccc4O2)CCO3)CC1 (stereo not given) 14.5%, O=C(c1cc(C(F)(F)F)cc(C(F)(F)F)c1)N1CCC2(CCCN(c3ccccc3)C2)CC1 -10.8%, COc1ccc(CNc2ccnc(-c3ccoc3)n2)c(OC)c1 0.91%, COc1ccc(Oc2ncc3nc(C)c(=O)n(C)c3n2)cc1 15.2%, Cc1cnc(SCc2ccccn2)nc1C1CCCN(Cc2ccsc2)C1 (stereo not given) 23.6%, CCCCNc1c(C(=O)OCC)c(C)nc2c1cnn2CC, CSc1nc2cc(Oc3cccc(Cl)c3Cl)c(Cl)cc2[nH]1 -13.9%, COc1cccc(-c2ccc3ncnc(N4CCNCC4)c3c2)c1 4.91%, CCCCC1(COC(=O)CCC(=O)O)C(=O)N(c2ccccc2)N(c2ccccc2)C1=O, O=c1c(-c2cccc(Cl)c2)nc2cncnc2n1Cc1ccc(F)cc1 -2.65%, CC(C)c1ccc(Cn2ccc3c4c(N)nc(NC5CC5)nc4ccc32)cc1 0.281%, COc1ccccc1CN1CCC2(CC1)CCN(S(=O)(=O)c1ccccc1)CC2 20.4%, COc1cc(NC(C)CCCN)c2ncccc2c1 (stereo not given), O=c1[nH]c(=O)n([C@H]2C[C@H](O)[C@@H](CO)O2)cc1Br, COc1ccc(/C(=C\C(=O)O)c2nccc3cc(OC)c(OC)cc23)cc1OC 3%, CN(C)C(=O)c1ccc(-c2cncnc2NCc2cccnc2)cc1 -14.7%, CS(=O)(=O)N1CCC[C@@]2(CCN(c3ccncc3)C2)C1 16.4%, COc1cccc(CN2c3ccc(Br)cc3C(=O)CS2(=O)=O)c1 -14.1%, COc1ncc2nc(-c3ccccc3)c(=O)n(CCC#N)c2n1 -3.07%, CN(C)c1ccc(/C=[N+]2\C(=O)CC(=O)NC2=O)cc1 10.7%, COc1cccc(OC)c1C(=O)N[C@@H]1C(=O)N2[C@@H]1SC(C)(C)[C@@H]2C(=O)O 20%, COCCn1c(=O)c(-c2ccc(OC)cc2)nc2cnc(Nc3ccccc3)nc21 4.06%, Cc1ccc(S(=O)(=O)NC(=O)NN2CCCCCC2)cc1, COc1cc2c(CCNC(C)=O)c[nH]c2cc1Cl, CC1Cc2ccccc2C[N+]1(C)CC(=O)c1cccc([N+](=O)[O-])c1 (stereo not given) -23%, N#CCCN1CCC(NC(=O)OCc2ccccc2)CCC1=O (stereo not given) -0.114%, CO/N=C(/C(=O)NC1C(=O)N2C(C(=O)O)=C(CSc3nc(=O)c(O)nn3C)CSC12)c1csc(N)n1 (stereo not given) 6.35%, Cc1ncc2c(c1CNC(=O)c1ccc3c(c1)OCO3)CCN(C(=O)c1cccc(-n3cccn3)c1)C2 6.43%, CNC1CCC(c2ccc(Cl)c(Cl)c2)c2ccccc21 (stereo not given) 9.51%, CS(=O)(=O)Nc1cccc(-c2ccc3ncnc(N4CCOCC4)c3c2)c1 9.3%, CSc1ccc2cc(CNCc3ccccc3F)c(N3CCCC(CO)C3)nc2c1 (stereo not given) 7.44%, CCC1CN(CCNC(=O)c2cccnc2C)Cc2cc(OC)ccc2O1 (stereo not given) 7.12%, Cc1cnc2c(C)cccc2c1C 3.14%, COc1ccc(Oc2ncc3nc(C)c(=O)n(-c4ccccc4)c3n2)cc1 6.22%, COCC(=O)N1CCC2(CC1)CCN(c1ncccn1)CC2 14.1%, COCC(=O)N1CCC2(CC1)CCN(C(=O)Nc1cccc(F)c1)CC2 35.6%, C=CCn1c(=O)c2c(nc(-c3ccc(S(=O)(=O)O)cc3)n2C)n(C)c1=O, CCCCN1CC[C@H]2C=CC[C@@H](C(=O)NCc3ccc(OC)cc3)[C@H]2C1=O 0.704%, O=C(c1cc2ccccc2o1)N1CCN(Cc2ccccc2)CC1 4.24%, O=c1c(-c2cccc(Cl)c2)nc2cncnc2n1-c1ccccc1 3.94%, CC(C)c1ccc2c(c1)CC[C@@H]1[C@@](C)(CN)CCC[C@]21C 10.5%, CC(C)c1c(C(=O)NCC2(N3CCCCC3)CCCC2)cnn1-c1nccc(-c2ccco2)n1 12.4%, Cc1cc2nc(N3CCC(NC(C)c4nc(-c5ccccn5)no4)CC3)nc(C)c2cc1C (stereo not given) 1.9%, CN(Cc1ccco1)c1nc(-c2cccnc2)nc2ccccc12 -1.3%, Nc1nc2c([nH]c(=O)n2C2OC(CO)C(O)C2O)c(=O)[nH]1 (stereo not given) 10.9%, CCOC(=O)c1ccc(N)cc1, Cc1ccc2c(C)ccnc2c1 -2.01%, CCC1(C2CCN(C(=O)c3ccccc3Cl)CC2)NC(=O)N(CCc2scnc2C)C1=O (stereo not given) 6.92%, CCNc1ncc2nc(C)c(=O)n(CCC#N)c2n1 -3.94%, CC1c2ccccc2CN1CC1=NCCN1 (stereo not given) 4.55%, CCCCCCCCCCCCCCC(F)C(=O)O (stereo not given) 21% [at 15.3 µM], OC(CCCN1CCCCC1)(c1ccccc1)c1ccccc1 23.2%, O=c1c2ccccc2oc2cc(O)c(C3COCC(CO)C(O)C(O)C3O)c(O)c12 (stereo not given) -10.1%, CCN(CC)CCOC(=O)C(c1ccccc1)c1ccccc1 20.8%, COC(=O)N1CCC2(CC1)CN(c1cccc(-c3ccccc3)c1)C2 -19.2%, CN1CCN(c2c(F)cc3c(=O)c(C(=O)O)cn4c3c2OCN4C)CC1 -0.374%, c1cncc(CNc2ncnc3ccc(-c4ccoc4)cc23)c1 -7.04%, COc1cc([C@@H]2Oc3cc([C@H]4Oc5cc(O)cc(O)c5C(=O)[C@H]4O)ccc3O[C@H]2CO)ccc1O -5.5%, COC(=O)C1CCCCN1Cc1ccc2c(c1)CN(Cc1cc(OC)c3c(c1)OCO3)CCO2 (stereo not given) -7.6%, COc1ccc(C(=O)N2CCC[C@@]3(CCN(Cc4ccncc4)C3)C2)cc1 21.9%, COc1ccc(-c2nc3cnc(N4CCNCC4)nc3n(C)c2=O)cc1 14.1%, O=C(CN1Cc2ccccc2OC(c2ccccc2)C1)N1CCCCC1c1cccnc1 (stereo not given) -13.1%, CCOc1ccc2nc3cc(N)ccc3c(N)c2c1, O=c1c(O)c(-c2ccc(O)c(O)c2)oc2ccccc12 10.1%, CCN(CC)CCNc1ccc(CO)c2sc3ccccc3c(=O)c12 11.6%, CC(=O)C1CCC2C3CC(C)C4=CC(=O)CC[C@@]4(C)C3C(O)C[C@@]12C (stereo not given in full) 22.4%, CC(=O)OC[C@H]1O[C@@](COC(C)=O)(O[C@H]2O[C@H](COC(C)=O)[C@@H](OC(C)=O)[C@H](OC(C)=O)[C@H]2OC(C)=O)[C@@H](OC(C)=O)[C@@H]1OC(C)=O 6.54%, O=c1c(CCc2ccccc2)nc2cnc(Oc3ccccc3)nc2n1C[C@H]1CCCO1 -13.7%, CC(=O)N1CCC2(CC1)CN(c1ccncc1)C2 3.2%, Cc1cnc(SCc2ccccn2)nc1C1CCCN(C(=O)c2cccc(-c3cccc(F)c3)c2)C1 (stereo not given) -4.88%, CN(Cc1cnc2nc(N)nc(N)c2n1)c1ccc(C(=O)N[C@@H](CCC(=O)O)C(=O)O)cc1, O=C(COc1ccc(Cl)cc1)N1CCN(Cc2ccc3c(c2)OCO3)CC1 7.99%, N[C@@H](Cc1ccc(O)cc1)C(=O)O 1.86%, CNC(C)CCC=C(C)C (stereo not given) 12.2%, COc1cc(OC)c2c(=O)c(-c3ccc4c(c3)OCO4)coc2c1 25.3%, Cc1oc(-c2ccccc2NC(=O)c2ccccn2)nc1CNC(=O)c1ccc(Oc2ccccc2)o1 -8.67%, O=c1[nH]cnc2c1ncn2C1OC(CO)C(O)C1O (stereo not given), CCCC[C@@H](C=O)NC(=O)[C@H](CC(C)C)NC(=O)[C@H](CC(C)C)NC(C)=O (Ac-Leu-Leu-[Nle]-aldehyde) 34.8% [at 201 µM], Cc1oc(-c2cccc(NC(=O)c3ccccc3)c2)nc1CNC(=O)c1cnc2ccccn2c1=O 9.43%
